Where “and” joins values, the source holds several entries; their conditions need not be identical. Equal values may be shown once. The campaign covered roughly 330,000 compounds. About 40 (0.01%) were called active. This list was built around the results that the source calls inconclusive (neither active nor inactive); the mix of calls is not that of the screen. Calls come from the whole dose curve; as a rule, active = well fitted inhibition curve with a large enough effect; inconclusive = small, poorly fitted or top-dose-only effect, or effect the other way; inactive = flat fitted curve, though single readings scatter. Where the call is inconclusive, the potency comes from a doubtful curve fit.
Each molecule was assayed against Ubiquitin carboxyl-terminal hydrolase 2 (Homo sapiens) (UniProt O75604) (assay: qHTS Assay for Inhibitors of Ubiquitin-specific Protease USP2a Using CHOP2 as the Reporter). Conditions: USP2 core, Ub-CHOP2 coupled fluorogenic reporter, 485/531; activity change, negative = inhibition: at 38.3 µM (top of the series).
UniProt O75604, sequence (O75604 whole entry, looked up): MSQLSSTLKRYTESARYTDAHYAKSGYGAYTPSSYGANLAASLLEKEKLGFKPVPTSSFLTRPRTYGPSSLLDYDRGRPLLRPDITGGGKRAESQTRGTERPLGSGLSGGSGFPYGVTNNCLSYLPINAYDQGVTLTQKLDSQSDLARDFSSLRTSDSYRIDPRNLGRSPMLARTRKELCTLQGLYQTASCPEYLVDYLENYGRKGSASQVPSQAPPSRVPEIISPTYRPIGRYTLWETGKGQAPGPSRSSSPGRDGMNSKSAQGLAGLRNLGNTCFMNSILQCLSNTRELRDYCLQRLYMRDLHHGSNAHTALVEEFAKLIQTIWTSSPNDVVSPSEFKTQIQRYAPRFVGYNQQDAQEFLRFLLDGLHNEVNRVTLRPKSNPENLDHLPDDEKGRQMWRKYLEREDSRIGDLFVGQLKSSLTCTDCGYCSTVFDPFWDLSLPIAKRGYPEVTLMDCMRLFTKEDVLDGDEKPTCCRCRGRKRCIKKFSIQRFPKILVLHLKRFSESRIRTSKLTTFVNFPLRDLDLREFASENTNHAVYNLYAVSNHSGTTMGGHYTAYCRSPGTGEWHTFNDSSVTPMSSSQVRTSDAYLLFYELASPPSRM
Outline: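 Deubiquitinase activity read as fluorescence (485/531 nm) after Ub-CHOP2 cleavage activates the enterokinase reporter on its substrate; USP2 core 10nM, Ub-CHOP2 and substrate 25nM each, 30min compound preincubation then 60min RT; data normalized to NEM, curves fitted.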
In the case of `CC1=C(C(=O)OC(C)C)C(c2ccc(Cl)cc2)n2c(s/c(=C\c3ccc(OCC(=O)O)cc3)c2=O)=N1` (stereo not given), the Potency is reported as inconclusive: 28.2 µM [fluorescent, single point]. With `N#C/C(=C\c1ccc(N2CCOCC2)o1)C(=O)N1CCOCC1` the Potency was inconclusive: 14.1 µM [fluorescent, single point]. `CC1CCCCC1NC(=O)CSCC(=O)O` (stereo not given) was tested, and the Potency was inconclusive: 3.98 µM [falling, single point]. With `CS(=O)(=O)c1ccc(C(=O)Nc2nc(-c3ccco3)c(-c3ccco3)s2)cc1` the Potency was inconclusive: 12.6 µM [falling, single point]. For `Cc1ccc2c(c1)C(=O)C(=O)N2Cc1ccc(F)cc1`, the “activity change, negative = inhibition” value was inactive: 3.55%. `CCCN1C=CC(=C/C=C(\C#N)C(=O)OCC)C=C1` was tested, and the Potency was inconclusive: 12.6 µM [fluorescent, single point]. In the case of `COc1ccc(C2C=C(c3ccc(Cl)cc3)Nc3nc(NC(C)=O)nn32)cc1` (stereo not given), the Potency is reported as inconclusive: 14.1 µM [fluorescent, single point]. With `CCc1cc(C(=O)N=Nc2c(O)[nH]c3ccc([N+](=O)[O-])cc23)c2ccccc2n1` the Potency was inconclusive: 28.2 µM [falling, single point]. With `Cc1ccc(C(=O)Oc2csc(=S)n2C(=O)c2ccc(C)cc2)cc1` the “activity change, negative = inhibition” value was inactive: 1.04%. For `Cc1cccc(C)c1NC(=O)COc1ccccc1C(=O)Nc1ccc(Br)cn1`, the “activity change, negative = inhibition” value was inactive: 8.86%. With `CC(C)c1ccc(Nc2nnc(SCC(=O)c3nnc(-c4ccccc4)o3)s2)cc1` the Potency was inconclusive: 28.2 µM [falling, single point]. With `NC(=NCCCCCCN=C(N)/N=C(\N)Nc1ccc(Cl)cc1)/N=C(\N)Nc1ccc(Cl)cc1` the Potency was inconclusive: 28.2 µM [falling, single point]. `O=C(Nc1ccc(NC(=O)c2cc3ccccc3o2)cc1)c1ccco1` was tested, and the “activity change, negative = inhibition” value was inactive: 1.51%. For `COc1cc(OC)c(-c2nn3c(-c4ccncc4)nnc3s2)cc1OC`, the Potency was inconclusive: 20 µM [falling, single point]. For `CC(=O)Nc1cc[n+](CC(=O)c2ccc(Cl)cc2)cc1`, the Potency was inconclusive: 28.2 µM [falling, single point]. With `Oc1[nH]c2c(Cl)cc(Cl)cc2c1N=NC(=S)NCC1CCCO1` (stereo not given) the “activity change, negative = inhibition” value was inactive: -0.812%. For `COc1ccc(Oc2coc3cc(O)ccc3c2=O)cc1`, the “activity change, negative = inhibition” value was inactive: 1.05%. In the case of `CN(C)/C=C1\C=C2C(=O)c3ccccc3N2C1=O`, the Potency is reported as inconclusive: 11.2 µM [fluorescent, partial curve]. With `CC(=O)Nc1ccc(-c2cc(C(=O)O)c3ccccc3n2)cc1` the “activity change, negative = inhibition” value was inactive: 2.46%. In the case of `CC(C)(C)[C@H]1COC(=O)[C@@H](Cc2ccc(F)cc2)C/C=C\C[C@@H](CC(=O)N[C@@H](CO)Cc2ccccc2)C(=O)N1`, the Potency is reported as inconclusive: 28.2 µM [falling, single point]. For `Cc1ccccc1N=C1NC(=O)CS1`, the Potency was inconclusive: 28.2 µM [falling, single point]. In the case of `O=C(CCCNC(=O)c1ccc(Cl)cc1)Nc1ccc(S(=O)(=O)Nc2ncccn2)cc1`, the “activity change, negative = inhibition” value is reported as inactive: 3.32%. With `CCCCS(=O)(=O)Nc1ccc2cn[nH]c2c1` the “activity change, negative = inhibition” value was inactive: -10.6%. With `O=C(Cc1cccs1)N/N=C/C=C\c1ccco1` the “activity change, negative = inhibition” value was inactive: -13%. For `CN1CCC2(CC1)C1CN(C)CC=C1C(C#N)=C(N)C2(C#N)C#N` (stereo not given), the Potency was “inactive and inconclusive: 11.2 µM [fluorescent, single point]”. With `Nc1nnnn1/N=C/c1ccccc1OCc1ccccc1` the “activity change, negative = inhibition” value was inactive: 0.577%. For `CN1/C(=C\C=C2/C(=O)Oc3ccccc3C2=O)C(C)(C)c2ccccc21`, the Potency was inconclusive: 5.62 µM [fluorescent, partial curve]. For `C[C@H](CO)N1C[C@H](C)[C@@H](CN(C)S(=O)(=O)c2cccs2)Oc2c(NC(=O)Nc3ccc4c(c3)OCO4)cccc2C1=O`, the Potency was inconclusive: 28.2 µM [falling, single point]. With `CCSc1nc2c(c(=O)[nH]c(=O)n2C)n1CC(O)COc1ccccc1C` (stereo not given) the Potency was inconclusive: 28.2 µM [falling, single point]. With `C=CCn1c(C)c(/C=C/c2cc[n+](C)cc2)c2ccccc21` the Potency was inconclusive: 11.2 µM [fluorescent, single point]. `Cc1cc(Cl)ccc1NC(=S)NCCCN1CCCC1=O` was tested, and the Potency was inconclusive: 3.16 µM [falling, single point]. In the case of `CCCCCc1cc(=O)oc2c(C(CCN3CCCCC3)c3cc(OC)c(OC)c(OC)c3)c(OC)cc(OC)c12` (stereo not given), the Potency is reported as inconclusive: 3.98 µM [fluorescent, partial curve]. With `COc1ccc(C(=O)COC(=O)c2ccccc2O)c(OC)c1` the Potency was inconclusive: 20 µM [falling, single point]. With `CC(C)Cn1c(SCC(N)=O)nnc1-c1cccc(S(=O)(=O)N2CCOCC2)c1` the Potency was inconclusive: 28.2 µM [falling, single point]. `COn1c(=O)c(-c2cccs2)[n+]([O-])c2ccccc21` was tested, and the “activity change, negative = inhibition” value was inactive: 2.32%. With `CC(C)(C)C(=O)Nc1ccccc1C(=O)NCc1ccco1` the “activity change, negative = inhibition” value was inactive: 3.54%. `COC(=O)c1ccc(N2CCN(C(C)=O)CC2)c(NC(=O)COc2ccccc2C)c1` was tested, and the “activity change, negative = inhibition” value was inactive: 1.89%. In the case of `CSC1=NCCN1C(=O)Cc1ccc(F)cc1`, the Potency is reported as inconclusive: 2.82 µM [falling, single point]. In the case of `O=C(NCCO)C(O)C(O)C(=O)NCCO` (stereo not given), the Potency is reported as inconclusive: 11.2 µM [fluorescent, single point]. In the case of `COc1ccc2[nH]c(=O)c(CN(C)C(=O)C3CCCCC3)cc2c1`, the Potency is reported as inconclusive: 28.2 µM [falling, single point]. In the case of `CCN1CCN(c2c(/C=C3\SC(=S)N(Cc4ccco4)C3=O)c(C)c(C#N)c(=O)n2C)CC1`, the Potency is reported as inconclusive: 5.01 µM [fluorescent, partial curve]. For `CCc1ccc(/C=C2\Oc3c(ccc(O)c3CN3CCN(C)CC3)C2=O)cc1`, the Potency was inconclusive: 10 µM [fluorescent, partial curve]. `CCOC(=O)N1CCN(S(=O)(=O)c2ccc(C)cc2)C1c1ccc(OC)cc1` (stereo not given) was tested, and the Potency was inconclusive: 28.2 µM [falling, single point]. In the case of `C/C(CC(=O)N1CCCC1)=N\NC(=O)c1cc2ccccc2cc1O`, the Potency is reported as inconclusive: 25.1 µM [falling, single point]. With `CC(Sc1nnnn1-c1ccccc1)C(=O)Nc1ccc(N2CCN(C)CC2)cc1` (stereo not given) the “activity change, negative = inhibition” value was inactive: 2.01%. For `NC(=O)C[C@@H]1N[C@]2(C(=O)Nc3ccccc32)[C@@H]2C(=O)N(c3cc(C(F)(F)F)ccc3Cl)C(=O)[C@H]12`, the Potency was inconclusive: 20 µM [falling, single point]. With `Cc1ccc2nc(NCCCNC(=O)c3cnccn3)c(C#N)cc2c1` the Potency was inconclusive: 28.2 µM [falling, single point]. With `C=CCNC(=O)C(C#N)c1nc2ccccc2nc1N1CCN(Cc2ccccc2)CC1` (stereo not given) the Potency was inconclusive: 28.2 µM [fluorescent, single point]. In the case of `CC1=CC(C)(C)N(C(=O)c2ccccc2)c2ccccc21`, the Potency is reported as inconclusive: 5.01 µM [falling, single point]. In the case of `Cc1cccc(NC(=O)COc2ccc3c(c2)CCC3)n1`, the “activity change, negative = inhibition” value is reported as inactive: 1.92%. `Cc1ccccc1C1CC(=O)Oc2cc(O)ccc21` (stereo not given) was tested, and the Potency was inconclusive: 11.2 µM [fluorescent, single point]. With `N#CC(C#N)=Cc1cn(-c2ncc(C(F)(F)F)cc2Cl)c2ccccc12` the “activity change, negative = inhibition” value was inactive: 0.96%. In the case of `O=C(O)CC1(CC(=O)Nc2ccc3ccccc3c2)CCCCC1`, the Potency is reported as inconclusive: 3.55 µM [falling, single point]. For `Cc1ccc(N=C2NC(=O)/C(=C/C=C/c3ccco3)S2)cc1`, the Potency was inconclusive: 20 µM [falling, single point]. For `O=C(Nc1cccc(Cl)c1)Nc1nnc(CC2=CCCCC2)s1`, the Potency was inconclusive: 28.2 µM [falling, single point]. In the case of `COc1ccc(C2C=C(c3ccc(Br)s3)Nc3ncnn32)cc1OC` (stereo not given), the Potency is reported as inconclusive: 22.4 µM [fluorescent, single point]. With `CCN1C(=O)[C@@H]2Cc3c([nH]c4ccccc34)C(c3cc(OC)c(OC)c(OC)c3)N2C1=S` (stereo not given in full) the Potency was inconclusive: 12.6 µM [fluorescent, single point]. In the case of `CCN1CCN(C(c2cc3cc4c(cc3[nH]c2=O)OCO4)c2nnnn2C(C)(C)CC)CC1` (stereo not given), the “activity change, negative = inhibition” value is reported as inactive: -1.88%. `O=C(N/N=C/c1ccccc1)c1ccco1` was tested, and the “activity change, negative = inhibition” value was inactive: 1.77%. In the case of `COc1cc(C2Nc3cccc4cccc(c34)N2)cc(OC)c1O`, the Potency is reported as inconclusive: 28.2 µM [falling, single point]. `CCc1ccc(/C=C2\Oc3c(ccc(O)c3CN3CCN(CCO)CC3)C2=O)cc1` was tested, and the Potency was inconclusive: 10 µM [fluorescent, single point]. With `COc1ccc(CC(NC(C)=O)C(=O)NC2CCN(c3nc(C)cc(C)c3C#N)CC2)c(OC)c1` (stereo not given) the Potency was inconclusive: 28.2 µM [falling, single point]. In the case of `COC(=O)c1[nH]c2cc(OC)ccc2c1N`, the Potency is reported as inconclusive: 5.01 µM [falling, single point]. With `Nc1cccc(-c2nc3ccc(C(=O)c4ccccc4)cc3[nH]2)c1` the “activity change, negative = inhibition” value was inactive: -0.0634%. For `CCCCCOCC1CC(C/C(C)=N/NC(N)=S)C(=O)O1` (stereo not given), the “activity change, negative = inhibition” value was inactive: 0.9%. In the case of `Cc1cc(C(=O)NCc2ccco2)on1`, the Potency is reported as inconclusive: 22.4 µM [falling, single point]. For `O=C(Nc1ccc(Oc2ccc(Cl)cc2)cc1)c1ncn[nH]1`, the Potency was inconclusive: 3.16 µM [falling, single point]. With `NC(CSCc1ccccc1Cl)C(=O)O` (stereo not given) the “activity change, negative = inhibition” value was inactive: -1.77%. For `COc1ccc(C2C=C(c3ccc(Br)cc3)Nc3nc(NS(C)(=O)=O)nn32)cc1` (stereo not given), the Potency was inconclusive: 20 µM [fluorescent, single point]. For `C=CC[C@H](CC(=O)N[C@H](CO)Cc1ccccc1)C(=O)N[C@@H](COC(=O)[C@@H](CC=C)CC(=O)OC(C)(C)C)Cc1c[nH]c2ccccc12`, the Potency was inconclusive: 20 µM [falling, single point].

Source: PubChem BioAssay AID463254 (National Center for Advancing Translational Sciences (NCATS), 2010)
Potency is the fitted concentration of half-maximal effect; tags give direction and shape of the fitted curve or compound fluorescence and quenching.
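Throughout, for activity change, negative = inhibition: plate controls were DMSO wells for no effect and full inhibition by NEM control for full effect.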
